{
  "source": "the supplement of paper PMC9446081",
  "note": "Among all 39,000 compounds or so, about 220 (0.56%) showed activity. The list shows a part of the results.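 Also: static incubation at 37 °C against the wild-type strain, values averaged over two biological replicates.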",
  "data": [
    {"tested_on": "Escherichia coli K-12 BW25113", "assay": "relative growth (OD600 normalised to plate interquartile mean) (fraction); higher = less growth inhibition, active = 0.2 or less", "settings": "50 µM; LB; incubation time: overnight (16-24 h)", "values": [
      {"compound": "COc1ccc(S(=O)(=O)Nc2ccc3c(c2)C(=O)N([C@H](C)CO)C[C@H](C)[C@H](CN(C)S(=O)(=O)c2ccc(F)cc2)O3)cc1", "relative growth": "inactive: 1.03"},
      {"compound": "C[C@@H]1CN([C@@H](C)CO)S(=O)(=O)c2ccc(Br)cc2O[C@H]1CN(C)C(=O)c1ccccc1", "relative growth": "inactive: 0.978"},
      {"compound": "O=C(C[C@@H]1CC[C@H]2[C@@H](COC[C@@H](O)CN2C(=O)Nc2cc(Cl)cc(Cl)c2)O1)N1CCOCC1", "relative growth": "inactive: 0.96"},
      {"compound": "Cc1ccc(S(=O)(=O)Nc2ccc3c(c2)CC(=O)N([C@H](C)CO)C[C@@H](C)[C@H](CN(C)Cc2ccc(Cl)c(Cl)c2)O3)cc1", "relative growth": "inactive: 1.01"},
      {"compound": "Cc1ccc(S(=O)(=O)Nc2ccc3c(c2)CC(=O)N([C@H](C)CO)C[C@@H](C)[C@@H](CN(C)Cc2ccc(-c4ccccc4)cc2)O3)cc1", "relative growth": "inactive: 0.99"},
      {"compound": "CON=C(C(=O)NC1C(=O)N2C(C(=O)[O-])=C(CSc3nc(=O)c([O-])nn3C)CSC12)c1csc(N)n1.O.O.O.[Na+].[Na+]", "note": "(stereo not given)", "relative growth": "active: 0.0494"},
      {"compound": "C[C@H]1CN([C@@H](C)CO)C(=O)c2cccc(NC(=O)Nc3cccc4ccccc34)c2O[C@@H]1CN(C)S(=O)(=O)c1ccc(F)cc1", "relative growth": "inactive: 1.01"},
      {"compound": "C[C@@H]1CCCCO[C@@H](CN(C)Cc2ccc(C(F)(F)F)cc2)[C@@H](C)CN([C@@H](C)CO)C(=O)c2cc(NS(C)(=O)=O)ccc2O1", "relative growth": "inactive: 0.977"},
      {"compound": "COc1ccc(S(=O)(=O)Nc2cccc3c2O[C@H](CN(C)Cc2ccncc2)[C@H](C)CN([C@H](C)CO)C3=O)cc1", "relative growth": "inactive: 1.01"},
      {"compound": "C[C@@H]1CCCCO[C@@H](CN(C)C)[C@H](C)CN([C@H](C)CO)C(=O)c2cc(NC(=O)Nc3cccc4ccccc34)ccc2O1", "relative growth": "inactive: 1.01"},
      {"compound": "C[C@@H]1CN([C@@H](C)CO)C(=O)c2cc(NS(=O)(=O)c3ccc(Cl)cc3)ccc2O[C@H]1CN(C)Cc1ccc(C(=O)Nc2ccccc2N)cc1", "relative growth": "inactive: 0.994"},
      {"compound": "COCCOC(=O)N1C(=O)[C@@]2(c3cc(C#CCCO)ccc31)[C@H](c1ccccc1OCCO)N1[C@H](c3ccccc3)[C@H](c3ccccc3)OC(=O)[C@H]1[C@@H]2C(=O)NC[C@H](O)c1ccccc1", "relative growth": "inactive: 0.995"},
      {"compound": "CCCC(=O)Nc1ccc2c(c1)C(=O)N(C)C[C@@H](OC)[C@H](C)CN(S(=O)(=O)c1cn(C)cn1)[C@H](C)CO2", "relative growth": "inactive: 0.992"},
      {"compound": "CO[C@H]1CN(C)C(=O)c2cc(NC(=O)CC(F)(F)F)ccc2OC[C@@H](C)N(C(=O)C2CCOCC2)C[C@@H]1C", "relative growth": "inactive: 0.926"},
      {"compound": "C[C@@H]1CN([C@@H](C)CO)C(=O)c2cccc(NS(C)(=O)=O)c2O[C@@H]1CN(C)C(=O)Nc1ccc2c(c1)OCO2", "relative growth": "inactive: 0.949"}
    ]}
  ]
}
